Source: the supplement of paper PMC3334620
Over roughly 33,000 sequences, “E-score (-0.5 to 0.5)” has its median near -0.016; the highest 2% begin near 0.32. Some of the results follow.

Target: T1, Stp1 (UniProt B3LFK1)
T1 sequence: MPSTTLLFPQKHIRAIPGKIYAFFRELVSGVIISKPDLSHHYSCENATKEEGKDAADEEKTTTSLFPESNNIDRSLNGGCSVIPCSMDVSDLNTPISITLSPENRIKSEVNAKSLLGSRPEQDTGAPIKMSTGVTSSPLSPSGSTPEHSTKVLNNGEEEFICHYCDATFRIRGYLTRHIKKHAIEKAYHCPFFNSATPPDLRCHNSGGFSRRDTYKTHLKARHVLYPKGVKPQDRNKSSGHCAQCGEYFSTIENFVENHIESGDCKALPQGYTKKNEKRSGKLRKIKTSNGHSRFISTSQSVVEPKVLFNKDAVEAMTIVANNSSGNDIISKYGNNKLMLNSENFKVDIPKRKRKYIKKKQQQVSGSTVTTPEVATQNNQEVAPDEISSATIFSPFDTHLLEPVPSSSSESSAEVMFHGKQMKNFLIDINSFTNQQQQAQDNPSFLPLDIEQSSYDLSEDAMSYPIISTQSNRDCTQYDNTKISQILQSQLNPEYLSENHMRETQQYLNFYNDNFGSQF
Test: PBM E-score (8-mer binding enrichment) (E-score (-0.5 to 0.5)); higher = stronger / more preferred TF binding; most listed sequences are background and not binding sites
Conditions: protein concentration: 200 nM; construct: GST-full length
How it was run: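 Each ungapped eight-base word and its reverse complement, pooled, received an E-score from the Universal PBM Analysis Suite. Underlying scans, normalised with masliner, recorded fluorescent anti-GST bound to GST-tagged yeast transcription factors. These were applied at about 100-200 nM to universal all-10-mer Agilent arrays double-stranded by primer extension.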

Sequence | PBM E-score
AGTGACTG | -0.249
GCTCCACC | -0.229
ACCCCTCG | -0.281
ATCGCCGG | 0.192
ACCGTCGG | -0.194
AACCCATA | -0.0253
GTTTTTAA | 0.123
AAAATCTA | 0.143
CTATGAGA | -0.132
AAACTCTA | -0.0936
CAGGTTAA | -0.207
CAGTTATC | 0.0278
AGTGCTGC | 0.11
GATGCTAC | -0.0867
CCCGTGCC | 0.33
CGATCCCC | -0.141
AGCGGCCA | -0.114
AAATCACA | -0.113
AAAATAGA | 0.0389
ATTCAGTC | 0.0106
ACGAGAGA | -0.114
AGCTACAA | -0.0168
ATGATGGC | -0.118
GACAACAC | 0.0697
ACCAATTA | 0.136

Sequence | PBM E-score
CGAGTCGC | -0.182
AAGCGCAT | -0.17
CCCCCCTC | -0.408
TATAGTAA | 0.109
TAGTACGA | 0.0733
ACTCTCCG | 0.0704
TATTACCA | 0.108
CCAGTAGG | -0.0159
CTCCTAGC | -0.0176
ACGAATAG | -0.134
GATCACGC | 0.158
ACGGAGGC | -0.00751
GGAGTTGA | -0.23
ACACTACA | -0.0358
TCCCGCAA | 0.109
CGTGACGA | 0.0622
GGCGTTCA | 0.158
ACCTAAAA | -0.0112
CAGTACCC | -0.217
ACCCACTG | -0.129
GACCGTTA | -0.136
CGCGTCTC | 0.153
TCAGGACA | -0.102
CATCGCAC | -0.0888
ACTCTTAT | 0.0603

Sequence | PBM E-score
GCGGTAGA | -0.078
CGCATACA | 0.187
TATACAGA | 0.1
CGGCGTTC | 0.391
GCATGAAC | 0.182
GCGGAATA | 0.133
AGCACAAA | 0.206
GAGTTTTA | 0.0717
CACCATGC | -0.0746
GTCCCGGA | -0.0459
CAAGACGG | -0.0357
ACCGAATA | -0.0813
ACCATCGT | 0.0227
CAGATGGG | -0.222
CCTGGTAA | -0.0755
CCTAGTAG | -0.163
ATTGATAA | 0.127
CCCGACGA | -0.263
ACACGTAG | -0.0459
ACCTCACT | -0.059
CCTCGAGA | -0.0892
GAGCTTTA | -0.0656
GCGGGACC | -0.234
TAGACGGA | 0.0477
AAGCTGCT | -0.0665

Sequence | PBM E-score
AACGGGAG | -0.0705
TCACGCGA | 0.00427
GCACGCAC | 0.0208
ACACATAA | 0.122
CCCCTTAA | -0.172
TCTCGGCA | 0.045
TTTTAAAA | 0.234
AGGGGAGA | -0.374
AGTGTACA | 0.0302
CGTAGCAA | 0.211
CGCAGTCC | -0.13
GAGGCTTA | -0.0974
CTTCCAAC | -0.0447
GTGGCTTA | -0.117
CGGTAGGC | 0.0251
CAACTCGC | 0.101
CCCTCTAA | -0.131
ATAGCGAA | 0.151
GTCACAGA | -0.212
AGACGGTC | -0.0485
TGAGAGAA | 0.0963
CACGTACG | 0.157
AAAAGGTC | -0.119
CAACATGC | 0.151
CTGTTTTA | 0.0911

Sequence | PBM E-score
CGAGTGGA | -0.256
GCACCGGA | -0.0404
CCAATACC | -0.139
CTTATTTA | -0.14
TAGGCCGA | -0.243
CAACAATC | 0.136
CTTGTCCA | -0.0978
CGTCCGTA | 0.0166
ACCTAGAT | -0.159
AGTTCCAC | -0.0986
CAAAAAAA | 0.167
CATCAGCG | 0.0863
ACGTGTTC | -0.0436
TACGCTAA | 0.141
TATATGGA | -0.0992
AACCAGCC | -0.103
AGATTCAC | -0.173
ATCCAAAC | 0.096
CGGCGCGC | 0.475
CAGTTATA | -0.134
TAGTACCA | -0.0183
CGCTCGGA | 0.0526
CCAAGTGG | 0.0421
TATATTCA | 0.175
GTATTGCA | -0.0366

Sequence | PBM E-score
CCCGATAA | -0.135
TCTGTGAA | 0.0926
CAATAACG | 0.149
AACCCCTC | -0.377
ACCTTCCT | -0.158
CCGTAGAC | 0.0965
ACAGCAAG | 0.166
ACGGCCCC | 0.225
AGGGGGGC | -0.438
GAAGCGGC | 0.426
AACTAGCC | -0.052
GACGTGAA | -0.061
CTAGACAA | 0.0513
CAGGAACA | -0.328
CTAGTCGC | -0.157
AGCCAAGG | -0.138
AAAACTTA | 0.11
CCTTGCCC | 0.129
AATAACCG | -0.0201
AATTTCAG | 0.148
TCCGTCAA | 0.0115
ATAACTTG | 0.0954
ATTTACAA | -0.0107
ACGCTACA | 0.0113
GCGGAACC | 0.102

Sequence | PBM E-score
ACACCAAC | -0.204
GGTCCGAA | 0.00635
AGACTAGA | -0.182
TGTTGTAA | 0.149
TCACAGGA | -0.0531
CCATCTTC | 0.0277
TACATATA | 0.199
ATTGATCG | 0.0229
ATGGCAGA | 0.116
GTTTGTTA | 0.228
ATGCGCGG | 0.307
AAACTGCG | -0.0893
TACGTTCA | -0.00934
CACACCAC | -0.0382
AATCCTTC | -0.128
CCGCGCCG | 0.462
CCCGAGTC | -0.133
ATGATGCG | 0.148
CAACGTGA | -0.108
AATCCACG | 0.122
TAAGCATA | 0.122
ATGAAGTC | -0.12
